The list shows a part of the results. The energies were worked out here from pooled read counts, against the library average; single values are noisy.

The target in the test is T1, Pho4 (S. cerevisiae) (UniProt P07270).
T1 sequence: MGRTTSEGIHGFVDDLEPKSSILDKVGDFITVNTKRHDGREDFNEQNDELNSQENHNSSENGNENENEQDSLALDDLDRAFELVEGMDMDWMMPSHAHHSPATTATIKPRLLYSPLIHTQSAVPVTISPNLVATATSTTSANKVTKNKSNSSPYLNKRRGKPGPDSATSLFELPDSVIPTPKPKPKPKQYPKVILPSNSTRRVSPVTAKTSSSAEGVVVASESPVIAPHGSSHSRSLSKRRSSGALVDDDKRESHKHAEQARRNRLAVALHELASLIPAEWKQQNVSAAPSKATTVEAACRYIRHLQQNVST
In words: relative binding free energy (BET-seq); higher = weaker binding. The following applies: reference: library average.
For the sequence ACTGTCACGTGGATTG, the “relative binding free energy” value turned out to be 0.17 kcal/mol.
The result for TGGGGCACGTGCGCTA reads -0.22 kcal/mol; that for CTTAGCACGTGAGGAG, 0.23 kcal/mol.
To GCGTGCACGTGGGGAG belongs -0.26 kcal/mol; to CTTTACACGTGGATGT, 0.11 kcal/mol; to TTATGCACGTGAGGGG, 0.17 kcal/mol.
Consider GTTGTCACGTGGATTC, for which the “relative binding free energy” value amounted to 0.23 kcal/mol.
The result for TATTTCACGTGCGCGT reads 0.17 kcal/mol.
Turning to TAAGTCACGTGGGGAG, the “relative binding free energy” value was 0.06 kcal/mol.
Regarding AGCAGCACGTGCGGTG, the “relative binding free energy” value is -0.14 kcal/mol.
The result for TCGTGCACGTGTGTCT reads -0.07 kcal/mol; that for GGAGTCACGTGCGTGG, 0.18 kcal/mol; that for GTGGCCACGTGGGGCG, -0.1 kcal/mol.
The result for ATCTGCACGTGTTGGT reads 0.19 kcal/mol; that for GGTGACACGTGCTTTG, -0.01 kcal/mol; that for TGGTTCACGTGGAATC, 0.3 kcal/mol.
To AATAGCACGTGTAGGT belongs -0.03 kcal/mol; to TGCATCACGTGAGTGG, 0.24 kcal/mol.
As to ACGGGCACGTGGGGAG, the “relative binding free energy” value is -0.22 kcal/mol.
To GGTAGCACGTGTAGTT belongs 0.03 kcal/mol; to TAACTCACGTGGTTAT, 0.11 kcal/mol; to TCATTCACGTGGCTTT, 0.19 kcal/mol.
As to GTCGGCACGTGTAAGA, the “relative binding free energy” value was determined as 0.18 kcal/mol.
With GCGTTCACGTGGGGTG, the “relative binding free energy” value amounted to 0.18 kcal/mol.
The result for GTGTCCACGTGGTTGA reads -0.07 kcal/mol; that for TTCTTCACGTGAGTTT, 0.33 kcal/mol.
The result for GGTTCCACGTGAGATG reads 0.3 kcal/mol; that for CTGGTCACGTGTTTGC, 0.11 kcal/mol; that for CGGTTCACGTGTGTAA, 0.2 kcal/mol.
The result for GGTAGCACGTGGGTAC reads -0.14 kcal/mol.
Regarding CTGATCACGTGGTGTA, the “relative binding free energy” value was -0.1 kcal/mol.
The result for CATGGCACGTGTCGGG reads -0.24 kcal/mol.
Consider TGGCGCACGTGCTGTT, for which the “relative binding free energy” value is -0.22 kcal/mol.
To GTAGCCACGTGTGATG belongs 0.06 kcal/mol; to TCGTGCACGTGGCGGG, -0.06 kcal/mol; to GTTGCCACGTGCGGCG, -0.08 kcal/mol.
To GGTCACACGTGATAGT belongs 0.34 kcal/mol; to GAGGGCACGTGCGGTA, -0.17 kcal/mol.
For the sequence GATTTCACGTGGAATG, the “relative binding free energy” value was found to be 0.48 kcal/mol.
Regarding TAGGACACGTGGTCGT, the “relative binding free energy” value is -0.18 kcal/mol.
For the sequence GGAGGCACGTGGGATT, the “relative binding free energy” value amounted to 0.02 kcal/mol.
The result for TTTAACACGTGTGGCT reads 0.17 kcal/mol; that for CTGGTCACGTGAGATG, 0.36 kcal/mol; that for GCTGTCACGTGGCATG, 0.05 kcal/mol.
The result for CTTTGCACGTGTGTTC reads 0.1 kcal/mol.
To GCTGACACGTGGTGAG belongs -0.08 kcal/mol.
ATAATCACGTGCTGTT: the “relative binding free energy” value is -0.07 kcal/mol.
Turning to GCTGTCACGTGCGTTT, the “relative binding free energy” value was found to be 0.14 kcal/mol.
Regarding TAGGTCACGTGCTTTT, the “relative binding free energy” value was determined as 0.13 kcal/mol.
For the sequence GGGAACACGTGGTTGA, the “relative binding free energy” value is -0.05 kcal/mol.
To TATTACACGTGGATTG belongs 0.14 kcal/mol.
The result for ATTACCACGTGTTGGT reads 0.06 kcal/mol.
The result for TTTTTCACGTGTGTAA reads 0.28 kcal/mol.
GTGTACACGTGTATGC: the “relative binding free energy” value is -0.01 kcal/mol.
The result for TATGTCACGTGAGGGC reads 0.39 kcal/mol.
The result for CCGGGCACGTGAAGGG reads -0.06 kcal/mol.
As to GTGCACACGTGGTGTT, the “relative binding free energy” value was -0.07 kcal/mol.
Turning to TTAACCACGTGGTGGT, the “relative binding free energy” value was -0.16 kcal/mol.
To TTGATCACGTGAGGGA belongs 0.32 kcal/mol.
Consider TTGGTCACGTGATTTG, for which the “relative binding free energy” value was determined as 0.38 kcal/mol.
For ATGCACACGTGTTGTT, the “relative binding free energy” value turned out to be 0.03 kcal/mol.
For the sequence GTGTCCACGTGGTTGC, the “relative binding free energy” value came to 0.05 kcal/mol.
To GTGGACACGTGGGATC belongs -0.02 kcal/mol.
Consider TTAGGCACGTGATTAT, for which the “relative binding free energy” value turned out to be 0.04 kcal/mol.
The result for GAGGACACGTGGTGTC reads -0.01 kcal/mol.
To GAGAACACGTGGTGTA belongs -0.06 kcal/mol; to TGTGTCACGTGTTCAT, 0.08 kcal/mol.
As to CTGATCACGTGGGCGT, the “relative binding free energy” value was found to be 0.14 kcal/mol.
As to CGAAGCACGTGTTGTT, the “relative binding free energy” value is -0.04 kcal/mol.
Turning to AAGGACACGTGTTATA, the “relative binding free energy” value stood at 0.02 kcal/mol.
The result for GATGTCACGTGATGAT reads 0.4 kcal/mol; that for AGGTTCACGTGTAGAG, 0.28 kcal/mol.
On to TATATCACGTGAGATT, for which the “relative binding free energy” value came to 0.32 kcal/mol.
To TAAGACACGTGTAGTG belongs -0.04 kcal/mol.
Take TAGTGCACGTGTGGCT: the “relative binding free energy” value is -0.03 kcal/mol.
The result for TCATTCACGTGTCGGT reads 0.25 kcal/mol; that for GTATTCACGTGTGAAG, 0.21 kcal/mol; that for ATAGTCACGTGGGATT, 0.03 kcal/mol.
Turning to TGTGGCACGTGCATAG, the “relative binding free energy” value was -0.22 kcal/mol.
On to CTGTTCACGTGTTGGT, for which the “relative binding free energy” value stood at 0.16 kcal/mol.
To AGAGTCACGTGGTGCT belongs 0.12 kcal/mol; to TGATGCACGTGTAATT, 0.2 kcal/mol; to GTAAGCACGTGCGGTG, -0.17 kcal/mol.
To ATTCGCACGTGTTAGT belongs 0.05 kcal/mol; to TATAGCACGTGGAGTT, -0.09 kcal/mol.
As to AATTACACGTGTTGCA, the “relative binding free energy” value worked out at 0.3 kcal/mol.
To GTAGGCACGTGATGAG belongs 0.01 kcal/mol.
The result for ATGGGCACGTGGGAAA reads -0.07 kcal/mol; that for CTTGACACGTGGTTAG, -0.05 kcal/mol; that for GGAAGCACGTGAAGTA, 0.2 kcal/mol.
On to CGGTGCACGTGTCTTG, for which the “relative binding free energy” value is -0.07 kcal/mol.
To CGTTACACGTGGTAGT belongs 0.03 kcal/mol.
On to AGGAGCACGTGGGGCT, for which the “relative binding free energy” value was -0.25 kcal/mol.
As to AACGTCACGTGAGTAG, the “relative binding free energy” value came out at 0.39 kcal/mol.
On to ATTGTCACGTGCATTT, for which the “relative binding free energy” value turned out to be 0.01 kcal/mol.
Consider ATTTTCACGTGCATAT, for which the “relative binding free energy” value was 0.19 kcal/mol.
For AAATCCACGTGTGTGT, the “relative binding free energy” value is 0.05 kcal/mol.
To GCTAGCACGTGTGGGG belongs 0.02 kcal/mol; to TAGATCACGTGATAGG, 0.15 kcal/mol.
The result for TTGTGCACGTGTGGCA reads 0.06 kcal/mol; that for TTTATCACGTGGGATG, 0.08 kcal/mol.
Consider TTCAGCACGTGAGGGA, for which the “relative binding free energy” value turned out to be 0.05 kcal/mol.
The result for AGGGCCACGTGAGAAG reads 0.21 kcal/mol; that for GGGGCCACGTGGAAAT, 0.16 kcal/mol; that for GGTGCCACGTGTATAG, 0.01 kcal/mol.
To ATTCACACGTGTGTTG belongs 0.04 kcal/mol; to GCAGGCACGTGAGCGT, 0.09 kcal/mol.
The result for TTGGGCACGTGATACG reads -0.01 kcal/mol; that for GTGTTCACGTGAGGCA, 0.21 kcal/mol; that for AGGGGCACGTGGCGTC, -0.26 kcal/mol.
In the case of GAAGACACGTGGTAGG, the “relative binding free energy” value was 0.02 kcal/mol.
The result for GTGTCCACGTGTTGTG reads 0.08 kcal/mol; that for TGGGGCACGTGCCGTG, -0.28 kcal/mol; that for ATGGTCACGTGAGGTG, 0.21 kcal/mol.
Consider GGTATCACGTGATAAT, for which the “relative binding free energy” value turned out to be 0.26 kcal/mol.

(Values after the BET-seq Pho4 binding data (Le et al. 2018).)
